Assay results published in PubChem BioAssay AID652104 (National Center for Advancing Translational Sciences (NCATS), 2013).
Hit rate of the full screen: of about 410,000 compounds, about 7,200 (1.8%) were called active. This list was built around the results that the source calls inconclusive (neither active nor inactive); the mix of calls is not that of the screen. Calls come from the whole dose curve; as a rule, active = well fitted activation curve with a large enough effect; inconclusive = small, poorly fitted or top-dose-only effect, or another doubt; inactive = no such curve, though single readings can be large or run the other way. Potencies of inconclusive entries are left out as doubtful fits.
Potency is the fitted concentration of half-maximal effect; tags give direction and shape of the fitted curve.

Assay: qHTS of TDP-43 Inhibitors; note: nearly all actives have a fitted effect of over 50% in size; for growth rescue (activation): % of control where 0% means no effect
Conditions: TDP-43 expressing yeast growth rescue, BacTiter-Glo, 24 h; growth rescue (activation): at 46.1 µM (top of the series) unless noted
Summary of the method: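 Growth rescue of TDP-43-toxic yeast measured as ATP luminescence (BacTiter-Glo). Cells grown to mid-log in raffinose, induced in galactose at OD600=0.02, exposed to compound 24 hr at 30 deg C.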
In the case of `COc1ccccc1Nc1nc(-c2cccc([N+](=O)[O-])c2)cs1`, the Potency is reported as active: 22.4 µM.
For `COc1cc(OC)nc(-n2ncc(Br)c(Br)c2=O)n1`, the Potency was active: 11.2 µM.
With `O=C(Nc1cccnc1)c1ccc(COc2cc(Cl)ccc2Cl)o1` the Potency was inconclusive [activator, single point].
With `CCOc1ccc(NC(=O)CC2C(=O)Nc3ccccc3N2C(=O)c2ccccc2)cc1` (stereo not given) the growth rescue (activation) was inconclusive: 31.7% [activator].
In the case of `O=C(CCC1CCCC1)N1CCc2c([nH]c3ccccc23)C1c1ccc(Cl)cc1` (stereo not given), the Potency is reported as “inactive”.
In the case of `CCOc1ccc(OCC(=O)NCCS(=O)(=O)N2CCN(c3ccc(F)cc3)CC2)cc1`, the Potency is reported as inconclusive [activator, partial curve].
For `O=c1c2c(-c3ccccc3)csc2ncn1/N=C/c1cccc([N+](=O)[O-])c1O`, the growth rescue (activation) was inconclusive: -60.1% [activator].
In the case of `COc1cccc(CNC(=O)CSc2ncc3c(n2)-c2cc(Cl)ccc2N(C)S3(=O)=O)c1`, the Potency is reported as “inactive”.
With `Cc1nn2cc(-c3ccc(Cl)cc3)nc2s1` the Potency was inconclusive [activator, full curve].
With `O=C(Nc1ccccc1Cl)c1ccccc1Oc1ccc(C(F)(F)F)cc1[N+](=O)[O-]` the Potency was inconclusive [activator, single point].
In the case of `O=C(N/N=C/c1ccncc1)c1cccc(N/N=C/c2ccncc2)c1`, the Potency is reported as inconclusive [activator, partial curve, poor fit].
With `O=C(COC(=O)[C@@H]1CCCN1S(=O)(=O)c1ccccc1F)Nc1ccc(OC(F)F)cc1` the Potency was “inactive”.
With `O=C(Nc1ccc(C(F)(F)F)cc1)c1cc(S(=O)(=O)NC2CCCCC2)ccc1F` the Potency was inconclusive [activator, single point].
With `COc1cccc(-c2nc(=S)c3c(o2)CCCC3)c1` the Potency was inconclusive [activator, partial curve].
For `CCCN1C(=O)C(O)(CC(=O)c2ccc(OC)c(OC)c2)c2ccccc21` (stereo not given), the Potency was “inactive”.
With `Cn1c(=O)c2cc(NC(=S)NC3CC3)ccc2n1Cc1cccc(C(F)(F)F)c1` the Potency was inconclusive [activator, partial curve, poor fit].
With `COc1ccccc1-c1nc(S(=O)(=O)c2ccccc2)c(N2CCOCC2)o1` the Potency was inconclusive [activator, partial curve].
With `COc1ccc(-c2cnnn2-c2ccc([N+](=O)[O-])cc2)cc1` the Potency was inconclusive [activator, single point].
With `C1=C(c2sc3ccccc3c2-c2ccc(OCCN3CCOCC3)cc2)CCCC1` the Potency was inconclusive [activator, partial curve].
With `COC(=O)C(C)(N)Cc1ccc(O)cc1` (stereo not given) the Potency was inconclusive [activator, partial curve].
For `Cc1ccc(S(=O)(=O)NC23CC4CC(CC(C4)C2)C3)cc1`, the Potency was inconclusive [activator, single point].
For `O=C(O)c1ccccc1OC(=O)C12CC3CC(CC(C3)C1)C2`, the Potency was inconclusive [activator, partial curve].
With `CC(=O)c1sc2nc(C)c3c(c2c1N)CCCC3` the Potency was active: 12.6 µM.
With `CCOc1cccc(/C=N/N2C(=O)CSC2=S)c1O` the Potency was inconclusive [activator, single point].
With `COCCNCCOCCOc1ccc(Cl)c(C)c1` the Potency was “inactive”.
For `CC1(C(=O)NS(=O)(=O)c2cccc(C#N)c2)CCN1C(=O)C1(c2ccc(Cl)cc2)CCC1` (stereo not given), the Potency was “inactive”.
For `O=C(Nc1nc2ccsc2c(=O)s1)C1CCC1`, the Potency was active: 10 µM.
For `COc1cccc(CNC(=O)CN2C(=O)CSc3c2c(C)nn3-c2ccccc2)c1OC`, the Potency was inconclusive [activator, full curve, poor fit].
With `COc1cc(SC)ccc1C(=O)N1CCN(c2ccccc2F)CC1` the Potency was active: 11.2 µM.
With `C#CCNC(=O)C1=C[C@@H](c2ccc(Br)cc2)[C@H](CCCO)[C@@H](OCC)O1` the Potency was inconclusive [activator, partial curve].
With `Cc1ccc(Cl)cc1-n1c(=O)c2sc3ccccc3c2n(CC(=O)NC2CCCCC2)c1=O` the Potency was “inactive”.
With `COCc1nc(-c2cc(Br)ccc2OC)no1` the Potency was inconclusive [activator, partial curve].
For `CC1CCCC(C)N1C(=O)COC(=O)c1c[nH]c2ccccc12` (stereo not given), the Potency was “inactive”.
With `Cc1ccc(C)c(N2CCN(C(=O)Nc3ccc4c(c3)N(C)C(=O)CS4)CC2)c1` the Potency was inconclusive [activator, partial curve].
For `O=S(=O)(Nc1cccc(-c2ccc(N3CCCCCC3)nn2)c1)c1ccc(F)cc1`, the Potency was “inactive”.
With `COc1cc(CNn2c(C)n[nH]c2=S)cc(Cl)c1OCc1ccccc1` the Potency was inconclusive [activator, single point].
With `O=S(=O)(NCc1ccccc1)c1ccc(Cl)cc1` the Potency was inconclusive [activator, partial curve].
For `Cc1c(CCNC(=O)Cc2ccc(F)cc2)sc2nc(-c3ccc(F)cc3)nn12`, the Potency was inconclusive [activator, partial curve].
With `O=C(Cn1c(=O)c2ccccc2n(CC(=O)Nc2ccc(Cl)cc2)c1=O)NCCc1ccccc1` the Potency was “inactive”.
In the case of `O=C(Oc1cccc(C(=S)N2CCOCC2)c1)c1ccc([N+](=O)[O-])cc1[N+](=O)[O-]`, the Potency is reported as active: 11.2 µM.
In the case of `Cc1nn(Cc2ccccc2)c(C)c1NC(=O)CSc1nc(C2CC2)nc2c1cnn2-c1ccccc1`, the Potency is reported as “inactive”.
With `CCCCn1c(N)c(-c2nc3ccccc3s2)c2c([N+](=O)[O-])nn(CC)c(=O)c21` the Potency was “inactive”.
In the case of `CCc1ccc(-n2nc3ccc(NC(=O)c4ccc5c(c4)OCO5)cc3n2)cc1`, the Potency is reported as “inactive”.
For `COC(=O)c1cc(NC(=O)C2COc3ccccc3O2)ccc1Cl` (stereo not given), the Potency was inconclusive [activator, single point].
In the case of `Cc1ccc(C2c3c(-c4cc(C)ccc4O)n[nH]c3C(=O)N2Cc2ccco2)cc1` (stereo not given), the Potency is reported as inconclusive [activator, partial curve, poor fit].
